# Source: the supplement of paper PMC10037445
# Whole data set: some 2,900 compounds, median “IRF Lucia reporter activity, fold change vs agonist alone” near 0.9, cut for the highest 2% near 2.8. The list shows a part of the results.
# Tests used:
# RAW-Dual [1] = assay: IRF Lucia reporter activity, fold change vs agonist alone; cytotoxicity flag (confluency mask): not cytotoxic; higher = enhanced IRF activity
# In short: (§1)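 Supernatant from RAW-Dual macrophages was read after 20 hours for IRF by QuantiLuc luminescence and for NF-κB by QuantiBlue absorbance at 620 nm. The cells (50,000 cells/well in DMEM, 384-well plates, 37 °C, 5% CO2) had received 50 nL of library stock by pin tool and, 1 h later, a PRR agonist. Reporter activity is expressed relative to agonist-alone wells as fold change, and wells were flagged cytotoxic if IncuCyte confluency was under 70% of agonist controls in both mask sets.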
# RAW-Dual [2] = assay: IRF Lucia reporter activity, fold change vs agonist alone; higher = enhanced IRF activity; conditions: library stock concentration (final ~1000-fold dilution): 10 mM, agonist: MPLA (TLR4) […]
# In short: as §1
# RAW-Dual [3] = assay: IRF Lucia reporter activity, fold change vs agonist alone; cytotoxicity flag (confluency mask): cytotoxic (confluency <70% of control); higher = enhanced IRF activity
# In short: as §1
# [4] = agonist: 3'3'-cGAMP (STING) 10 ug/mL
# [5] = cytotoxicity flag (confluency mask): not cytotoxic
smiles,measurement,setting,value
CCC(C(N)=O)N1CCCC1=O (stereo unspecified) (library stock concentration (final ~1000-fold dilution): 10 mM),IRF Lucia reporter activity,RAW-Dual [1]; [4],1.04
same,IRF Lucia reporter activity,RAW-Dual [1]; agonist: LPS (TLR4) 0.1 ug/mL,0.965
CCC(C(N)=O)N1CCCC1=O (stereo unspecified),IRF Lucia reporter activity,RAW-Dual [2]; [5],1.01
Cl.O=C(O)Cc1c[nH]cn1 (library stock concentration (final ~1000-fold dilution): 10 mM),IRF Lucia reporter activity,RAW-Dual [1]; [4],1.01
same,IRF Lucia reporter activity,RAW-Dual [1]; agonist: LPS (TLR4) 0.1 ug/mL,1.02
Cl.O=C(O)Cc1c[nH]cn1,IRF Lucia reporter activity,RAW-Dual [2]; [5],1.02
CN1C2CCC1CC(=O)C2,IRF Lucia reporter activity,RAW-Dual [2]; [5],0.837
CN1C2CCC1CC(=O)C2 (library stock concentration (final ~1000-fold dilution): 10 mM),IRF Lucia reporter activity,RAW-Dual [1]; [4],1.14
same,IRF Lucia reporter activity,RAW-Dual [1]; agonist: LPS (TLR4) 0.1 ug/mL,1.07
CC[N+](C)(CC)CCOC(=O)C(O)(c1ccccc1)c1ccccc1 (library stock concentration (final ~1000-fold dilution): 10 mM),IRF Lucia reporter activity,RAW-Dual [1]; [4],1.01
same,IRF Lucia reporter activity,RAW-Dual [1]; agonist: LPS (TLR4) 0.1 ug/mL,1.26
CC[N+](C)(CC)CCOC(=O)C(O)(c1ccccc1)c1ccccc1,IRF Lucia reporter activity,RAW-Dual [2]; [5],1.01
CN1C2CCC1CC(OC(=O)C(CO)c1ccccc1)C2 (stereo unspecified) (library stock concentration (final ~1000-fold dilution): 10 mM),IRF Lucia reporter activity,RAW-Dual [1]; [4],0.736
same,IRF Lucia reporter activity,RAW-Dual [1]; agonist: LPS (TLR4) 0.1 ug/mL,1.05
CN1C2CCC1CC(OC(=O)C(CO)c1ccccc1)C2 (stereo unspecified),IRF Lucia reporter activity,RAW-Dual [2]; [5],1.08
CN1CCN(c2nc3ccccc3nc2Cl)CC1,IRF Lucia reporter activity,RAW-Dual [2]; [5],0.866
CN1CCN(c2nc3ccccc3nc2Cl)CC1 (library stock concentration (final ~1000-fold dilution): 10 mM),IRF Lucia reporter activity,RAW-Dual [1]; [4],0.898
same,IRF Lucia reporter activity,RAW-Dual [1]; agonist: LPS (TLR4) 0.1 ug/mL,0.839
CCN1CC2(OC(=O)c3ccccc3NC(C)=O)CCC(OC)C34C1C(CC23)C1(O)CC(OC)C2CC4C1(O)C2OC (stereo unspecified),IRF Lucia reporter activity,RAW-Dual [2]; [5],1.05
CCN1CC2(OC(=O)c3ccccc3NC(C)=O)CCC(OC)C34C1C(CC23)C1(O)CC(OC)C2CC4C1(O)C2OC (stereo unspecified) (library stock concentration (final ~1000-fold dilution): 10 mM),IRF Lucia reporter activity,RAW-Dual [1]; [4],1.05
same,IRF Lucia reporter activity,RAW-Dual [1]; agonist: LPS (TLR4) 0.1 ug/mL,1.1
COc1cc2c(cc1OC)C13CCN4CC5=CCOC6CC(=O)N2C1C6C5CC43.COc1cc2c(cc1OC)C13CCN4CC5=CCOC6CC(=O)N2C1C6C5CC43.O.O.O.O.O.O.O.O=S(=O)(O)O (stereo unspecified) (library stock concentration (final ~1000-fold dilution): 10 mM),IRF Lucia reporter activity,RAW-Dual [1]; [4],1.06
same,IRF Lucia reporter activity,RAW-Dual [1]; agonist: LPS (TLR4) 0.1 ug/mL,0.675
COc1cc2c(cc1OC)C13CCN4CC5=CCOC6CC(=O)N2C1C6C5CC43.COc1cc2c(cc1OC)C13CCN4CC5=CCOC6CC(=O)N2C1C6C5CC43.O.O.O.O.O.O.O.O=S(=O)(O)O (stereo unspecified),IRF Lucia reporter activity,RAW-Dual [2]; [5],1.06
Cc1ccccc1-n1c(Cn2ncc3c(N)ncnc32)nc2cccc(C)c2c1=O (library stock concentration (final ~1000-fold dilution): 10 mM),IRF Lucia reporter activity,RAW-Dual [1]; [4],1.08
same,IRF Lucia reporter activity,RAW-Dual [1]; agonist: LPS (TLR4) 0.1 ug/mL,1.09
Cc1ccccc1-n1c(Cn2ncc3c(N)ncnc32)nc2cccc(C)c2c1=O,IRF Lucia reporter activity,RAW-Dual [2]; [5],1.03
Br.CN1C2CC(OC(=O)C(CO)c3ccccc3)CC1C1OC12.O.O.O (stereo unspecified) (library stock concentration (final ~1000-fold dilution): 10 mM),IRF Lucia reporter activity,RAW-Dual [1]; [4],0.889
same,IRF Lucia reporter activity,RAW-Dual [1]; agonist: LPS (TLR4) 0.1 ug/mL,0.379
Br.CN1C2CC(OC(=O)C(CO)c3ccccc3)CC1C1OC12.O.O.O (stereo unspecified),IRF Lucia reporter activity,RAW-Dual [2]; [5],1.11
C/C(O)=C(\C#N)C(=O)Nc1cc(Br)ccc1Br (library stock concentration (final ~1000-fold dilution): 10 mM),IRF Lucia reporter activity,RAW-Dual [1]; [4],1.01
same,IRF Lucia reporter activity,RAW-Dual [1]; agonist: LPS (TLR4) 0.1 ug/mL,1.72
Cc1cccc(-c2ccnc3c(C(N)=O)cnn23)c1 (library stock concentration (final ~1000-fold dilution): .1 mM),IRF Lucia reporter activity,RAW-Dual [1]; [4],0.997
same,IRF Lucia reporter activity,RAW-Dual [1]; agonist: LPS (TLR4) 0.1 ug/mL,0.905
CCC1(C)CC(=O)NC(=O)C1 (library stock concentration (final ~1000-fold dilution): 10 mM),IRF Lucia reporter activity,RAW-Dual [1]; [4],1.14
same,IRF Lucia reporter activity,RAW-Dual [1]; agonist: LPS (TLR4) 0.1 ug/mL,1.06
CCC1(C)CC(=O)NC(=O)C1,IRF Lucia reporter activity,RAW-Dual [2]; [5],1.15
COc1ccc(CC2NCC(O)C2OC(C)=O)cc1 (stereo unspecified) (library stock concentration (final ~1000-fold dilution): 10 mM),IRF Lucia reporter activity,RAW-Dual [3]; [4],0.0152
same,IRF Lucia reporter activity,RAW-Dual [3]; agonist: LPS (TLR4) 0.1 ug/mL,0.0218
COc1ccc(CC2NCC(O)C2OC(C)=O)cc1 (stereo unspecified),IRF Lucia reporter activity,RAW-Dual [2]; cytotoxicity flag (confluency mask): cytotoxic (confluency <70% of control),0.0195
COc1cc(OC)c(OC)cc1C=O (library stock concentration (final ~1000-fold dilution): 10 mM),IRF Lucia reporter activity,RAW-Dual [1]; [4],0.803
same,IRF Lucia reporter activity,RAW-Dual [1]; agonist: LPS (TLR4) 0.1 ug/mL,0.912
COc1cc(OC)c(OC)cc1C=O,IRF Lucia reporter activity,RAW-Dual [2]; [5],0.858
COc1cc2c(cc1O)CC1c3c(cc(O)c(OC)c3-2)CCN1C (stereo unspecified) (library stock concentration (final ~1000-fold dilution): 10 mM),IRF Lucia reporter activity,RAW-Dual [1]; [4],0.988
same,IRF Lucia reporter activity,RAW-Dual [1]; agonist: LPS (TLR4) 0.1 ug/mL,0.995
Cc1sc2c(c1C)C(c1ccc(Cl)cc1)=NC(CC(=O)Nc1ccc(O)cc1)c1nnc(C)n1-2 (stereo unspecified),IRF Lucia reporter activity,RAW-Dual [2]; [5],0.141
Cc1sc2c(c1C)C(c1ccc(Cl)cc1)=NC(CC(=O)Nc1ccc(O)cc1)c1nnc(C)n1-2 (stereo unspecified) (library stock concentration (final ~1000-fold dilution): 10 mM),IRF Lucia reporter activity,RAW-Dual [1]; [4],0.216
same,IRF Lucia reporter activity,RAW-Dual [1]; agonist: LPS (TLR4) 0.1 ug/mL,0.0933
Cc1sc2c(c1C)C(c1ccc(Cl)cc1)=NC(CC(N)=O)c1nnc(C)n1-2 (stereo unspecified),IRF Lucia reporter activity,RAW-Dual [2]; [5],0.162
Cc1sc2c(c1C)C(c1ccc(Cl)cc1)=NC(CC(N)=O)c1nnc(C)n1-2 (stereo unspecified) (library stock concentration (final ~1000-fold dilution): 10 mM),IRF Lucia reporter activity,RAW-Dual [1]; [4],0.216
same,IRF Lucia reporter activity,RAW-Dual [1]; agonist: LPS (TLR4) 0.1 ug/mL,0.174
O=C(CC1NCCCC1O)Cn1cnc2cc(Br)c(Cl)cc2c1=O (stereo unspecified) (library stock concentration (final ~1000-fold dilution): 10 mM),IRF Lucia reporter activity,RAW-Dual [3]; [4],0.00797
same,IRF Lucia reporter activity,RAW-Dual [3]; agonist: LPS (TLR4) 0.1 ug/mL,0.00984
O=c1[nH]c2ccccc2n1C1CCN(Cc2ccc(-c3nc4cc5nc[nH]c5cc4nc3-c3ccccc3)cc2)CC1 (library stock concentration (final ~1000-fold dilution): 10 mM),IRF Lucia reporter activity,RAW-Dual [1]; [4],0.513
same,IRF Lucia reporter activity,RAW-Dual [1]; agonist: LPS (TLR4) 0.1 ug/mL,1.79
CN(C)C(=O)Oc1cc(OC(=O)N(C)C)cc(C(O)CNC(C)(C)C)c1.Cl (stereo unspecified),IRF Lucia reporter activity,RAW-Dual [2]; [5],1.12
CN(C)C(=O)Oc1cc(OC(=O)N(C)C)cc(C(O)CNC(C)(C)C)c1.Cl (stereo unspecified) (library stock concentration (final ~1000-fold dilution): 10 mM),IRF Lucia reporter activity,RAW-Dual [1]; [4],1.04
same,IRF Lucia reporter activity,RAW-Dual [1]; agonist: LPS (TLR4) 0.1 ug/mL,1.14
CCN(CC)CCOC(=O)C(O)(c1ccccc1)c1ccccc1.Cl (library stock concentration (final ~1000-fold dilution): 10 mM),IRF Lucia reporter activity,RAW-Dual [1]; [4],1.24
same,IRF Lucia reporter activity,RAW-Dual [1]; agonist: LPS (TLR4) 0.1 ug/mL,0.827
CCN(CC)CCOC(=O)C(O)(c1ccccc1)c1ccccc1.Cl,IRF Lucia reporter activity,RAW-Dual [2]; [5],0.912
